# Laboratory results reported in patent US20170281764A1 (JN BIOSCIENCES, published 2017).
# T1: human TIGIT on cells (Jurkat-TIGIT cells; human T cells, NK cells and other blood cells) (human, UniProt Q495A1 22-244)
# T1 sequence: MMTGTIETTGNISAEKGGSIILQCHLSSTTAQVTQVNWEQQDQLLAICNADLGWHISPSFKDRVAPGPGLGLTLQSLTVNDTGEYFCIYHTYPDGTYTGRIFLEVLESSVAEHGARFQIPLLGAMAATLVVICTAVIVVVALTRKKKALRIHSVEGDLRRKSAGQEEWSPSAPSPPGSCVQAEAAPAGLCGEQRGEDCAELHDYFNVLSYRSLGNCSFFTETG
# B1: HuTIG3-IgG1.AA (humanized IgG1/kappa form of TIG3, L234A/L235A) (antibody)
# heavy: EVQLVESGGGLVQPGGSLRLSCAASGFAFSDYDMSWVRQAPGKGLEWVAYISDGGYNTYYPDTVKGRFTISRDNAKNSLYLQMNSLRAEDTAVYYCARQILLRYYFDYWGQGTTVTVSS[human IgG1 constant region with changes cut from this listing]
# light: DIQMTQSPSSLSASVGDRVTITCKSSQSLLYSSNQKNYLAWYQQKPGKAPKLLIYWASTRESGVPSRFSGSGSGTDFTLTISSLQPEDFAVYYCQQYHSYPWTFGGGTKVEIKRTVAAPSVFIFPPSDEQLKSGTASVVCLLNNFYPREAKVQWKVDNALQSGNSQESVTEQDSKDSTYSLSSTLTLSKADYEKHKVYACEVTHQGLSSPVTKSFNRGEC
# notes: Mature full chains; also called humanized TIG3
# Molecular target: T1, human TIGIT on cells (Jurkat-TIGIT …)
# Experiment: cell-based or functional assay
binder,measurement,value
B1,"increase of K562 target cell killing by purified NK cells, 10 µg/ml antibody, relative to 'No Antibody' or Rituxan",19%
